Results on 54 molecules are retold here after paper PMC4336329 (PLoS ONE, 2015).

Among all 310,000 compounds or so, about 14,000 (4.5%) showed an effect of 50% or more. Effects have a minus sign here. Some of the results follow.
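Further: peak tail current of the secondary pulse compared with the same well before compound.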

For the assay, the target named is human ether-à-go-go-related gene (hERG) potassium channel (human, UniProt Q12809). Briefly: primary screen, population patch clamp on CHO cells stably expressing hERG.
Sequence of human ether-à-go-go-related gene (hERG) potassium channel (Q12809 whole entry, looked up): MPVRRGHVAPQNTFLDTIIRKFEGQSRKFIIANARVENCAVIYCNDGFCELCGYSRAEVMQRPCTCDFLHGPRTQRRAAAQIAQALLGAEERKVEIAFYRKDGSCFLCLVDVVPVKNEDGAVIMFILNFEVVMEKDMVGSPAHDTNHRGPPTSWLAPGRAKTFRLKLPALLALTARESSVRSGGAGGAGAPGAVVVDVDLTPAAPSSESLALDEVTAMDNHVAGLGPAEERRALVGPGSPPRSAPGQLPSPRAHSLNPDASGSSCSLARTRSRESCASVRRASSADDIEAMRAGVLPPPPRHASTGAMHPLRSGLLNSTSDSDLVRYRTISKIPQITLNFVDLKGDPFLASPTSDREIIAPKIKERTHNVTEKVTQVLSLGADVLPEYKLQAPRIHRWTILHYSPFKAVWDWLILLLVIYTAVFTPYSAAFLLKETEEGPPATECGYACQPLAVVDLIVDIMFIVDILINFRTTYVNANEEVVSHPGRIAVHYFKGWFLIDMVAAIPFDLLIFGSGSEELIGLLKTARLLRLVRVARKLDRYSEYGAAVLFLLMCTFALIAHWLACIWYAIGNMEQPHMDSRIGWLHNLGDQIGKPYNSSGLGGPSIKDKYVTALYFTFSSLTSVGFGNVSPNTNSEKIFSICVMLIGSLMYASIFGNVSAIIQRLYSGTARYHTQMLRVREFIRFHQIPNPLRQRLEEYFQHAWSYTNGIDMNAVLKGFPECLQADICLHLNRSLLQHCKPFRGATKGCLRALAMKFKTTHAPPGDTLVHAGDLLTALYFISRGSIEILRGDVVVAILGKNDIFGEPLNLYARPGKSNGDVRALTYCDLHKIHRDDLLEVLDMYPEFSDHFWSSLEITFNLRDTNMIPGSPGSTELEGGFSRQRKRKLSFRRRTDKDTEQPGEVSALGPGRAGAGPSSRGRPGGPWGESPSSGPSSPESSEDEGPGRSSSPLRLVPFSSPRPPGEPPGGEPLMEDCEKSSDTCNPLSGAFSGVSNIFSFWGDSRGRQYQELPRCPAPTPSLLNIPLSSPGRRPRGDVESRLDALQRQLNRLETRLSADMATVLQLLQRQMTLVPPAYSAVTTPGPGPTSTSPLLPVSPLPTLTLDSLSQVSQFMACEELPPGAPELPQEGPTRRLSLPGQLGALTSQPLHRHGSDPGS
Consider `CC(C)NC(=O)COc1coc(CN2CCN(c3ccccc3)CC2)cc1=O`, for which the “hERG current change (%, negative = inhibition) at 10uM” value is given as -1.14%.

As to `CC(C)(C)C1C/C(=C/c2ccccn2)C(=O)/C(=C/c2ccccn2)C1` (stereo not drawn), the “hERG current change (%, negative = inhibition) at 10uM” value is listed as -23.8%. In the case of `CCn1c(SCC(=O)c2[nH]c(C)c(C(C)=O)c2C)nnc1-c1ccncc1` it was -9.36%; in that of `O=[N+]([O-])c1cn(Cc2ccc(Cl)cc2)cn1`, -1.82%; in that of `Cc1ccc2nc(Cl)c(/C=N/NC(=O)[C@H]3C[C@@H]3c3ccccc3)cc2c1`, 19.5%. In the case of `CCOC(=O)c1sc(=S)n(-c2ccccc2)c1SC` it was 1.41%; in that of `COc1cc2c(cc1OC)-c1cc(Nc3ccc(N(C)C)cc3)nc(=O)n1CC2`, -27.6%; in that of `Nn1c(SCC(=O)Nc2nccs2)nnc1-c1ccccn1`, 0.594%. In the case of `COc1ccc(S(=O)(=O)Nc2cccnc2)cc1` it was 14.3%; in that of `CSc1ccccc1NC(=O)CN(Cc1ccccc1)S(C)(=O)=O`, 4.1%; in that of `CCOC(=O)CSc1nsc(SCC(=O)OCC)c1C#N`, -55.7%. For `CC(/C=N/NC(=O)c1ccncc1)=C\c1ccc(C(C)C)cc1`, the “hERG current change (%, negative = inhibition) at 10uM” value was determined as 5.1%. Regarding `CC1(c2ccccc2Cl)NC(=O)N(CC(=O)N2c3ccccc3NC(=O)C2(C)C)C1=O` (stereo not drawn), the “hERG current change (%, negative = inhibition) at 10uM” value is -3.87%.

As for `COc1ccc(CCNC(=O)c2cc3c(=O)n4ccccc4nc3n(C3CCCCC3)c2=N)cc1`, the “hERG current change (%, negative = inhibition) at 10uM” value is -81.3%. In the case of `CN(CCCC(=O)Nc1ccc(Br)cc1F)S(=O)(=O)c1ccccc1` it was -16.8%. In the case of `CCCCCCSc1ccc([C@H]2N[C@@](C)(C(=O)OC)[C@H]3C(=O)N(CC)C(=O)[C@@H]23)cc1.O=C(O)C(F)(F)F` it was -2.75%; in that of `O=C(O)c1ccccc1-c1ccccc1C(=O)NNc1ccccc1`, 2.41%; in that of `O=C(c1ccc(OC2CCN(C(=O)C3CC3)CC2)cc1)N(CCO)Cc1ccccc1`, -7.4%.

For the molecule `O=C1c2ccccc2C(=O)N1CCCc1c[nH]c2ccccc12`, the “hERG current change (%, negative = inhibition) at 10uM” value is -18%. In the case of `COCCN1Cc2cccc(C(=O)Nc3ccc(-c4nc5ccccc5[nH]4)cc3)c2C1=O` it was 3.23%; in that of `O=C(O)c1[nH]c2ccccc2c1C(c1cccc(O)c1)c1c(C(=O)O)[nH]c2ccccc12`, 24.4%; in that of `FC(F)(F)c1cnc(-n2cc[nH]c2=S)c(Cl)c1`, 12.1%. As for `O=C(CCCOc1ccc(Cl)cc1)N1CCCCC1`, the figure is -8.73%; as for `CCOC(=O)c1ccc(NC(=S)N(CCCN(CC)CC)Cc2ccco2)cc1`, -76.7%; as for `O=C(Nc1ccc(-c2nc3c(ccc4ccccc43)o2)cc1)c1ccco1`, 2.22%. In the case of `COc1ccc2nc(-c3cccc(N)c3)[nH]c2c1` it was 0.715%; in that of `CC(=Nc1ccc2c(c1)CCC2)c1c(O)n(C)c(=O)n(C)c1=O`, -3.93%; in that of `Cc1nc(P(=O)(c2ccccc2)c2ccccc2)c(N2CCOCC2)o1`, 16.7%.

As for `O=C(Nc1ccc(Cl)cc1)c1ccc2c(=O)n3c(nc2c1)CCCCC3`, the “hERG current change (%, negative = inhibition) at 10uM” value is reported as -32.5%.

On to `CC(Oc1cc2oc(=O)cc(-c3ccccc3)c2cc1Cl)C(=O)NCC1CCC(C(=O)O)CC1` (stereo not drawn), for which the “hERG current change (%, negative = inhibition) at 10uM” value was -4.83%.

Consider `O=C(CCc1ccc(S(=O)(=O)NCc2ccccc2)cc1)NCC1CCCO1` (stereo not drawn), for which the “hERG current change (%, negative = inhibition) at 10uM” value was 4.07%. In the case of `COC(=O)NCc1ccc(S(=O)(=O)N2CCOCC2)cc1` it was 18.6%; in that of `Cc1ccc(CN2CCN(Cc3ccc(-n4cccn4)cc3C)CC2CCO)cc1` (stereo not drawn), -78.6%. As for `COc1ccc(NC(=O)CCSc2ccc3ccccc3n2)cc1`, the figure is -11.7%; as for `Cc1ccc(NC(=O)CC(NCC2CCCO2)C(=O)O)cc1C` (stereo not drawn), 23.3%.

Consider `O=C(NCc1ccccc1)C1CC(=O)N(c2ccc(OCC(=O)N3CCCC3)cc2)C1` (stereo not drawn), for which the “hERG current change (%, negative = inhibition) at 10uM” value is -8.34%. As for `Cn1cc(CNC(=O)c2cc(-c3ccccc3)nc3ccc(Br)cc23)cn1`, the figure is 11.7%.

As for `COc1ccc([N+](=O)[O-])cc1NC(=O)Cc1ccc(C)cc1`, the “hERG current change (%, negative = inhibition) at 10uM” value is on record as 19.4%. In the case of `Cc1nc2nc(Cc3ccccc3)nn2c(C)c1Cl` it was -24.6%; in that of `COc1ccccc1CN1CCCC(C(=O)c2ccccc2SC)C1` (stereo not drawn), -71.1%. `Cc1[nH]c2ccccc2c1C(C[N+](=O)[O-])c1cccc(O)c1` (stereo not drawn): the “hERG current change (%, negative = inhibition) at 10uM” value is recorded as 8.53%. Consider `Cc1ccc(C2=Nn3c(COc4ccc(Cl)cc4)nnc3SC2CC(=O)O)cc1` (stereo not drawn), for which the “hERG current change (%, negative = inhibition) at 10uM” value worked out at 0.51%. As for `Nc1c(NCCCN2CCOCC2)c2ccccc2oc1=O`, the “hERG current change (%, negative = inhibition) at 10uM” value was 3%. As for `Cc1cc(NC(=O)CN2C(=O)NC3(CCCCCC3)C2=O)no1`, the figure is 9.2%; as for `COc1ccc([C@H]2/C=C\CN(C(=O)CC(C)(C)C)[C@@H](C)C(=O)N2Cc2ccc(F)cc2)cc1`, -17.4%. As to `CCOc1ccc(N2CC(C(=O)Nc3nnc(Cc4ccc(OC)cc4)s3)CC2=O)cc1` (stereo not drawn), the “hERG current change (%, negative = inhibition) at 10uM” value was -19.2%. In the case of `COc1cc2c(C#CCCO)c(-c3ccc(C#N)cc3)oc(=O)c2cc1OC`, the “hERG current change (%, negative = inhibition) at 10uM” value is on record as -30.4%. As for `CCOc1ccc(NC(=S)Nc2ccc(OCc3ccccc3)cc2)cc1`, the figure is 4.64%; as for `O=C(c1cc(S(=O)(=O)N2CCC3(CC2)OCCO3)ccc1F)N1CCC2(CC1)OCCO2`, -10.5%.

Take `O=S(=O)(c1cccc(-c2csc(N/N=C/c3ccco3)n2)c1)N1CCOCC1`: the “hERG current change (%, negative = inhibition) at 10uM” value is 1.03%. As for `O=c1[nH]c(-c2ccccc2)c(-c2ccccc2)[nH]1`, the figure is 13.3%; as for `Cc1ccc(NC(=O)CSC2=C(C#N)C(c3ccc4c(c3)OCO4)C3=C(CCCC3=O)N2)c(C)c1` (stereo not drawn), -23.4%; as for `CCc1ccc(N2C(=O)NC(=O)C(CCc3ccncc3)(CCc3ccncc3)C2=O)cc1`, -69.9%. In the case of `COc1cccc(C2CC(c3cccs3)=NN2C(=O)CSc2nc3ccccc3o2)c1OC` (stereo not drawn) it was 3.09%.
